Results on 1 molecule are retold here after paper PMC7731665.

This experiment has as its target vimentin in lupus nephritis kidney tissue, P08670. The experiment in a line: multi-color confocal microscopy of lupus kidney tissue, anti-FLAG detection. The conditions noted are these: chain shown with the change;, read off a plot.

Chain of vimentin in lupus nephritis kidney tissue, P08670 (P08670 whole entry): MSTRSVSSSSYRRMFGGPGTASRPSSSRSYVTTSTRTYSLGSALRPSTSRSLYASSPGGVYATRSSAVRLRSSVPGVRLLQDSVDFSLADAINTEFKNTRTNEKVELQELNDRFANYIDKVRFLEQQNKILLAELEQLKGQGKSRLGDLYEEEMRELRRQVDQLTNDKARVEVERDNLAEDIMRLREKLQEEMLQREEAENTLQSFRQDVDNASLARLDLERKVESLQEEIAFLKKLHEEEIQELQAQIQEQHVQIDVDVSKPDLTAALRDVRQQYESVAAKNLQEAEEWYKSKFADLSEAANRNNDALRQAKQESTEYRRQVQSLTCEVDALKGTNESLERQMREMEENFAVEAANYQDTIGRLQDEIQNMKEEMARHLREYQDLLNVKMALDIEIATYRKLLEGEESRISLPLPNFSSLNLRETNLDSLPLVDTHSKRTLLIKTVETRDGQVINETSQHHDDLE

B1: FLAG-tagged PB5mut PB5rev (all somatic hypermutations of heavy and light chain reverted to predicted germline; substitutions not printed) (protein)
chain 1: QVQLVESGGGVVQPGRSLRLSCAASGFTFSSYAMHWVRQAPGKGLEWVAVISYDGSNKYYADSVKGRFTISRDNSKNTLYLQMNSLRAEDTAVYYCARERRGNSDYFDYWGQGTLVTVSS
chain 2: EIVMTQSPATLSVSPGERATLSCRASQSVSSNLAWYQQKPGQAPRLLIYGASTRATGIPARFSGSGSGTEFTLTISSLQSEDFAVYYCQQYNNWPPMYTFGQGTKLEIK
As to B1, where the note is “parent: est. 0.40”, the other: F.O.V. Co-var. (correlation coefficient between TII mAb channel and V9 channel) is 0.15. Moreover, where the note is “parent: est. 4700”, the response turned out to be 3200 MPI.
